Reference: article PMC3189943, “Catalytic Properties of the Isolated Diaphorase Fragment of the NAD^+-Reducing [NiFe]-Hydrogenase from Ralstonia eutropha” (PLoS ONE, 2011)

Columns and labels:
Type in all cases: biochemical, Cupriavidus necator
[1] = substrate: NC(=O)c1ccc[n+]([C@@H]2O[C@H](COP(=O)(O)OP(=O)(O)OC[C@H]3O[C@@H](n4cnc5c(N)ncnc54)[C@H](O)[C@@H]3O)[C@@H](O)[C@H]2O)c1; assay: protein film electrochemistry, Hanes/Woolf plot; details: NAD+ reduction at -412 mV, enzyme adsorbed on graphite electrode, 50 mM Tris-HCl pH 8.0, 30°C, n = 9
[2] = substrate: c1ccc(C[n+]2ccc(-c3cc[n+](Cc4ccccc4)cc3)cc2)cc1; assay: purified protein; details: artificial electron acceptor, donor NADH, free enzyme, anaerobic, 50 mM Tris-HCl pH 8.0, 30°C
[3] = substrate: NC(=O)C1=CN([C@@H]2O[C@H](COP(=O)(O)OP(=O)(O)OC[C@H]3O[C@@H](n4cnc5c(N)ncnc54)[C@H](O)[C@@H]3O)[C@@H](O)[C@H]2O)C=CC1; assay: purified protein; details: free enzyme, acceptor benzyl viologen, anaerobic, 50 mM Tris-HCl pH 8.0, 30°C

B1: HoxFU (diaphorase moiety of the NAD+-reducing soluble [NiFe]-hydrogenase, SH) (Cupriavidus necator H16) (protein)
chain: MDSRITTILERYRSDRTRLIDILWDVQHEYGHIPDAVLPQLGAGLKLSPLDIRETASFYHFFLDKPSGKYRIYLCNSVIAKINGYQAVREALERETGIRFGETDPNGMFGLFDTPCIGLSDQEPAMLIDKVVFTRLRPGKITDIIAQLKQGRSPAEIANPAGLPSQDIAYVDAMVESNVRTKGPVFFRGRTDLRSLLDQCLLLKPEQVIETIVDSRLRGRGGAGFSTGLKWRLCRDAESEQKYVICNADEGEPGTFKDRVLLTRAPKKVFVGMVIAAYAIGCRKGIVYLRGEYFYLKDYLERQLQELREDGLLGRAIGGRAGFDFDIRIQMGAGAYICGDESALIESCEGKRGTPRVKPPFPVQQGYLGKPTSVNNVETFAAVSRIMEEGADWFRAMGTPDSAGTRLLSVAGDCSKPGIYEVEWGVTLNEVLAMVGARDARAVQISGPSGECVSVAKDGERKLAYEDLSCNGAFTIFNCKRDLLEIVRDHMQFFVEESCGICVPCRAGNVDLHRKVEWVIAGKACQKDLDDMVSWGALVRRTSRCGLGATSPKPILTTLEKFPEIYQNKLVRHEGPLLPSFDLDTALGGYEKALKDLEEVTR
notes: HoxFU heterodimer without HoxHY and HoxI; N-terminal Strep-tag II on HoxF kept; plasmid pGE553, homologous overproduction in R. eutropha HF424; Strep-Tactin plus size exclusion; apparent 110 kDa; HoxF 67 kDa, HoxU 27 and 23 kDa (both with original termini, unidentified modification); FMN and Fe-S clusters; with NAD-reducing hydrogenase HoxS subunit gamma
Protein B1 has a Km [1] of 197 ± 28 µM, a Km [2] of 882 µM and a Km [3] of 56 µM. For the same protein, the kcat [3] was 639 s⁻¹.
